The values below come from PubChem BioAssay AID602293 (National Center for Advancing Translational Sciences (NCATS), 2012).

About 30 (2%) of roughly 1,300 compounds were called active. Another 10% or so got no clear call; they are omitted. The call rests on the fitted dose curve; in most records, active means well fitted inhibition curve with a large enough effect; inconclusive means small, poorly fitted or top-dose-only effect; inactive means flat fitted curve, though single readings scatter. The list shows a part of the results.
On the % scale 0 is the no-effect control and ±100 the full control effect.

The nature of the test: qHTS for antagonists of the Thyroid Stimulation Hormone Receptor: Hit Validation in HTRF Activity in a Luteinizing Hormone Receptor Cell Line. As to conditions: LHR-expressing cell line, cAMP HTRF, antagonist mode; series mostly up to 58 µM; activity change, negative = inhibition: at the top concentration. The method, boiled down:
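HEK 293 cells stably expressing LH receptor, in DMEM with 10% FCS and 100 uM RO 20-1724, incubated with compound 30 min at room temperature. cAMP measured by competitive HTRF (anti-cAMP cryptate vs cAMP-d2), excitation 330 nm, emissions 615 and 660 nm.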
Regarding `C/C(=N/OCO/N=C(/C)c1ccc(F)cc1)c1ccc(F)cc1`, the “activity change, negative = inhibition” value was inactive: 2.18%.

As to `O=C(Nc1ccncc1)Nc1cc(Cl)ccc1Cl`, the “activity change, negative = inhibition” value is inactive: -0.049%. The same measure for `Nc1c(C(=O)NCc2ccc3c(c2)OCO3)nnn1CC(=O)Nc1ccc(Br)cc1`: inactive: 1.7%. The same measure for `COC(=O)c1ccc(C2C(Oc3ccccc3C)C(=O)N2CCc2ccc(OC)c(OC)c2)cc1` (configuration not stated): inactive: -0.367%. For `Clc1c(CSc2nc3ccccc3o2)nc2ccccn12`, the “activity change, negative = inhibition” value was inactive: 1.57%. The same measure for `COCCNc1cnn(-c2ccccc2)c(=O)c1Cl`: inactive: 2.21%; for `CC(=O)c1ccc(S(=O)(=O)N2CCN(CCOc3ccc(Br)cc3)CC2)cc1`: inactive: -6.47%. `O=C1C=C(c2ccc(Cl)c(C(F)(F)F)c2)C[C@@H](c2ccc(Cl)cc2)C1`: the “activity change, negative = inhibition” value was inactive: 0.68%. The same measure for `O=C(Nc1ccn(Cc2ccccc2F)n1)c1ccc(COc2ccccc2Cl)cc1`: inactive: -8.68%; for `CC1CCN(CCCNC(=O)CN2C(=O)CSc3ccc(S(=O)(=O)N4CCOCC4)cc32)CC1`: inactive: 0.922%; for `Cc1cc(C(=O)CCl)c(C)n1CCc1ccccc1`: inactive: -0.254%. Regarding `C=C(C)CNc1cc(S(=O)(=O)N2CCOCC2)ccc1Oc1ccccc1`, the “activity change, negative = inhibition” value was inactive: -2.45%. With `Cc1cccc(NC(=O)CCN2CCN(C)CC2)c1` the figure was inactive: 0.909%; with `COC(=O)c1c(NC(NC(=O)CC(C)C)C(Cl)(Cl)Cl)sc2c1CCC2` (configuration not stated), inactive: -2.49%. With `CCOC(=O)c1c(NC(NC(=O)C(C)C)C(Cl)(Cl)Cl)sc2c1CCC2` (configuration not stated) the figure was inactive: -0.795%. With `CCOc1ccccc1NC(=O)C1(S(=O)(=O)c2ccc(Cl)cc2)CC1` the figure was inactive: 1.77%; with `Cn1c(CNC(=O)c2ccc(Cl)cc2)nnc1SCC(=O)NC1CCCC1`, inactive: 2.45%. `C=CCNc1ncnc2ccc(Br)cc12`: the “activity change, negative = inhibition” value is inactive: -1.43%. With `O=C1NC(=S)S/C1=C\c1cc2ccccc2nc1N1CCCCC1` the figure was inactive: -1.93%; with `CCOc1ccc(Nc2nc(Cc3nnc(SCC(=O)c4ccc(C)cc4)o3)cs2)cc1`, inactive: 0.729%; with `CC(C)NC(=O)COc1coc(CN2CCN(c3ccccc3F)CC2)cc1=O`, inactive: -1.04%. Regarding `CCc1ccc(NS(=O)(=O)c2cc3[nH]c(=O)c(=O)[nH]c3cc2C)cc1`, the “activity change, negative = inhibition” value was inactive: 1.73%.

For the molecule `COc1ccc(/C=C2/SC(=S)NC2=O)cc1OCc1ccccc1`, the “activity change, negative = inhibition” value was inactive: -0.852%.

With `CC(C)C1Nc2ccc(C(=O)N3CCN(c4ccccn4)CC3)cc2NC1=O` (configuration not stated), the “activity change, negative = inhibition” value is inactive: 0.794%. The same measure for `Cc1ccccc1NC(=O)C1(C)Cc2ccccc2C(=O)O1` (configuration not stated): inactive: 0.461%; for `COC(=O)c1ccc(/C(O)=C(\C#N)c2nc3ccccc3s2)cc1`: inactive: -2.62%; for `CCOC(=O)c1c(-c2ccccc2)csc1NC(=O)CSc1nnnn1C`: inactive: -1.45%.

Take `COc1ccc(CNC(=O)CCS(=O)(=O)c2cc3c(cc2Cl)NC(=O)CO3)cc1`: the “activity change, negative = inhibition” value was inactive: -1.07%. The same measure for `Cc1onc(-c2c(Cl)cccc2Cl)c1C(=O)N1CCc2ccccc2C1`: inactive: 0.0011%. With `Cc1cc(OCc2cc(C(=O)NCc3csc(C(C)C)n3)no2)cc(C)c1Cl` the figure was inactive: -5.46%; with `CC(C)Oc1ccc(C(=O)NCCNC(=O)c2ccco2)cc1`, inactive: -1.04%; with `Cc1onc(-c2ccccc2Cl)c1C(=O)NC(=S)Nc1ccc(C(C)(C)C)cc1`, inactive: -1.66%.

As for `CCOc1ncccc1C(=O)Nc1ccc(C)c(S(=O)(=O)N2CCCCCC2)c1`, the “activity change, negative = inhibition” value is inactive: -6.55%. The same measure for `O=C(Nc1ccc(Cl)cc1)c1cc2c(cc1O)[nH]c1ccccc12`: inactive: -4.57%; for `COc1ccc(/C=C/C(=O)Nc2nc(C)cc(C)n2)cc1OC`: inactive: 1.32%; for `CCCc1ccc(-c2c(C)sc(NC(=O)c3ccnn3C)c2C#N)cc1`: inactive: -2.95%.

Take `COc1cccc(-c2nc(-c3ccc(NC(=O)c4cccnc4)cc3)no2)c1`: the “activity change, negative = inhibition” value was inactive: -3.43%. The same measure for `CC(C)CN=Cc1c(O)c([N+](=O)[O-])cc2oc3c(c12)CCCC3`: inactive: 3.45%; for `Cc1cccc(/C=C/C(=O)c2cc(Br)ccc(=O)c2O)c1`: inactive: -0.0449%; for `Cc1cc2nc(-c3ccc(NC(=O)c4cccnc4)cc3)oc2cc1C`: inactive: -7.47%. The same measure for `COc1ccc(-c2nnc(NC(=O)c3ccc(S(=O)(=O)N4CCCc5ccccc54)cc3)o2)cc1`: inactive: -0.489%; for `COc1ccc(CNC(=O)CCS(=O)(=O)c2ccc3c(c2)CCN3C(C)=O)cc1`: inactive: 2.64%. The same measure for `N#CC(C#N)=NNc1ccc(S(=O)(=O)N2CCCCC2)cc1`: inactive: -0.397%; for `CN(C)c1ccc(NC(=O)C2C3C=CC(C3)C2C(=O)O)cc1` (configuration not stated): inactive: -0.913%. `Nc1nc2nc(-c3ccccc3)cc(C(F)(F)F)c2s1`: the “activity change, negative = inhibition” value was inactive: 1.46%. The same measure for `CCOc1ccc(CN(C)c2ccc(S(=O)(=O)N3CCN(C)CC3)cc2[N+](=O)[O-])cc1OC`: inactive: -0.472%; for `O=C(c1ccc(Cl)c(S(=O)(=O)N2CCCCC2)c1)N1CCCC1`: inactive: 1.04%.

Take `CCCCOc1ncnc2c1[nH]c1ccccc12`: the “activity change, negative = inhibition” value was inactive: -2.8%. The same measure for `O=C(c1ccc2c(=O)n(Cc3ccc4c(c3)OCO4)c(=S)[nH]c2c1)N1CCCCC1`: inactive: -0.164%; for `COC(=O)c1ccc(NC(=O)Nc2ccc(F)c(Cl)c2)cc1`: inactive: -2.51%. The same measure for `O=C(Nc1cccc(S(=O)(=O)Nc2ccc(Cl)cc2)c1)c1ccc2c(c1)OCCO2`: inactive: -0.572%; for `Nc1nnc(COc2ccc(Br)cc2Br)s1`: inactive: 2.07%; for `COc1cc(C(C)=O)ccc1OCC(=O)Nc1ccc(Cl)c(S(=O)(=O)N2CCOCC2)c1`: inactive: -7.28%. Take `CCCCn1c(-c2c(Cl)c(C)nn2C)n[nH]c1=S`: the “activity change, negative = inhibition” value is inactive: 2.87%. With `COc1ccc(CCNC(=O)c2ccc(-c3ccc([N+](=O)[O-])cc3Cl)o2)cc1OC` the figure was inactive: -3.25%; with `Nc1nc(SCC(=O)NCC2CCCO2)[nH]c(=O)c1NC(=O)c1ccc(F)c(F)c1` (configuration not stated), inactive: 2.07%; with `Cc1ccccc1-c1cc(C(=O)Nc2sc(C(=O)OC(C)C)c(C)c2C#N)c2ccccc2n1`, inactive: -2.46%. The same measure for `CC(Sc1nnc(-c2cccs2)n1Cc1ccccc1)C(=O)NCc1ccc2c(c1)OCO2` (configuration not stated): inactive: -1.32%; for `COc1ccc(C2=NS(=O)(=O)N(C)C(C(=O)Nc3ccc4c(c3)OCO4)=C2)cc1OC`: inactive: -5.74%; for `N#C/C(=N\Nc1ccc(S(=O)(=O)N2CCc3ccccc32)cc1)C(N)=S`: inactive: 0.812%. As for `Cc1ccc(OCc2cc(C(=O)NC3CCCCC3)no2)cn1`, the “activity change, negative = inhibition” value is inactive: -0.815%.

Take `Cc1cc(NC(=O)c2cc(-c3ccco3)on2)nn1Cc1ccc(Cl)cc1`: the “activity change, negative = inhibition” value was inactive: -5.37%. Turning to `COc1cc(/C=N/OCC(=O)NC23CC4CC(CC(C4)C2)C3)ccc1OCc1ccccc1`, the “activity change, negative = inhibition” value is inactive: -8.02%.

Turning to `Cc1cc(C(=O)CSc2nnc(-c3ccccc3F)o2)c(C)n1Cc1cccs1`, the “activity change, negative = inhibition” value was inactive: -3.03%.

Regarding `Cc1cc(C)c2oc(C(=O)Nc3ccc(S(=O)(=O)Nc4nccc(C)n4)cc3)cc(=O)c2c1`, the “activity change, negative = inhibition” value is inactive: 1.23%.

Turning to `Cc1cc(Br)ccc1OCC(=O)NC1CCCC1`, the “activity change, negative = inhibition” value is inactive: -3.6%. On to `COc1ccc(/C=C/C(=O)c2ccc(NS(=O)(=O)c3ccc(C)cc3)cc2)cc1O`, for which the “activity change, negative = inhibition” value is inactive: -4.06%.
